Assay results: the RNAGym collection of RNA variant scans (doi:10.1073/pnas.2313332121)
Variants at the floor of the assay are shown more often than the library holds them.

B1: TPR 5TU (parent)
chain: GGAUCUUCUCGAUCUAACAAAAAAGACAAAUCUGCCACAAAGCUUGAGAGCAUCUUCGGAUGCAGAGGCGGCAGCCUUCGGUGGCGCGAUAGCGCCAACGUUCUCAACUAUGACACGCAAAACGCGUGCUCCGUUGAAUGGAGUUUAUCAUG

Variants of: B1
Experiment: polymerase ribozyme fitness, log enrichment relative to wild type (log ratio); higher = more active; in vitro selection for triplet polymerase activity
Summary of the method: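 Streptavidin-bead capture of gel-excised extended constructs, followed by RT-PCR, closed a single triplicate in vitro selection round. That round began by annealing PCR-built, transcribed mutant libraries of each subunit of a heterodimeric triplet polymerase ribozyme with a biotinylated primer, the partner subunit and triplets, then incubating them frozen at −7 °C. After Illumina sequencing of inputs and outputs, genotypes needed ≥10 input reads and ≥1 read per output. Fitness is the base-2 logarithm of genotype enrichment over wild-type enrichment, using inverse-variance-weighted replicate averages.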

Point of comparison: GGAUCUUCUCGAUCUAACAAAAAAGACAAAUCUGCCACAAUGCUUGAGAGCGUCAUCGGAUGCAGAGGAGGCAGCCUUCGGUGGCUCGAUAGCGCCAACGUUCUCAACUAUGACACGCAAAACGCGUGCUCCGUUGAAUGGAGUUUAUCAUG [A41U A52G U55A C69A G86U], “polymerase ribozyme fitness (log ratio)” value -3.96. Against it:
- GGAUCUUCUCGAUCUAACAAAAAAGACAAAUCUGCCACAAGGCUUGAGAACAUCUUCGGAUGCAGAGGAGGCAGCCUUCGACGGCGCGAUCGCGCCAACGUUCUCAACUAUGACACGCAAAACGCGUGCUCCGUUGAAUGGAGUUUAUCAUG [A41G G50A C69A G81A U82C A91C] — lower, ≤ -4.2
- GGAUCUUCUCGAUCUAACAAAAAAGACAAAUCUGCCACAAGGCUUGAGAGCAUCUUCGGAUGCAGAGACGGCAGCCUUCGGUGUCGCGAUAGCGCCAACGUUCUCAACUAUGACACGCAAAACGCGUGCUCCGUUGAAUGGAGUUUAUCAUG [A41G G68A G84U] — lower, ≤ -4.2
- GGAUCUUCUCGAUCUAACAAAAAAGACAAAUCUGCCACAAGGCUUGAGAGCAUCUUCGGAUGCAGAGGCGGCACCCUUCGGUGGCGCGAUAGCGCCAACGUUCUCAACUAUGACAGGCAAAACGCGUGCUCCGUUGAAUGGAGUUUAUCAUG [A41G G74C C116G] — lower, ≤ -4.2
- GGAUCUUCUCGAUCUAACAAAAAAGACAAAUCUGCCACAAGGCUUGAGAGCAUCUUCGGAUGCAGAGGCGGCAGCCUUCGGUAGCGCGAGAGCGCCAACGUUCUCAACUAUGACACGCAAAACGCGUGCUCCGUUUAAUGGAGUUUAUCAUG [A41G G83A U90G G136U] — lower, ≤ -4.2
- GGAUCUUCUCGAUCUAACAAAAAAGACAAAUCUGCCACAAGGCUUGAGAGCAUCUUCGGAUGCAGAGGCGGCAGCCUUCGGUGACGCGGUAGCGCCAACGUUGUCAACUAUGACACGCAAAACGCGUGCUCCGUUGAAUGGAGUUUAUCAUG [A41G G84A A89G C103G] — higher, -3.2
- GGAUCUUCUCGAUCUAACAAAAAAGACAAAUCUGCCACAAGGCUUGAGAGCAUCUUCGGAUGCAGAGGCGGCAGCCUUCGGUGUCGCGAUAGCGCCAACGUUCUCAACUAUGACACGCAAAACGCGUGCUCCGUUGAAUGGAGUUUAUCAUG [A41G G84U] — higher, -0.79
- GGAUCUUCUCGAUCUAACAAAAAAGACAAAUCUGCCACAAGGCUUGAGAGCAUCUUCGGAUGCAGAGGCGGCAGCCUUCGGUGGCUUGAUAGCGCCAACGUUCUCAACUAUGACACGCAAAACGCGUGCUCCGUUGAAUGGAAUUUAUCAUG [A41G G86U C87U G143A] — lower, ≤ -4.2
- GGAUCUUCUCGAUCUAACAAAAAAGACAAAUCUGCCACAAGGCUUGAGAGCAUCUUCGGAUGCAGAGGCGGCAGCCUUCGGUGGCGCGAUAGCUCCAACGUUCUCAACUAUGAUACGCAAAACGCGUGCUCCGUUGAAUGGAGUUUAUCGUG [A41G G94U C114U A150G] — within 0.2 log units, -3.98
- GGAUCUUCUCGAUCUAACAAAAAAGACAAAUCUGCCACAAGGCUUGAGAGCAUCUUCGGAAGCAGAGGCGGCAGCCUUCGGUGGCGCGUUAGGGCCUACGUUCUCGACUAUGACACGCAAAACGCGUGCUCCGGUGAAUGGAGUUUAUCAUG [A41G U61A A89U C93G A97U A106G U134G] — lower, ≤ -4.2
- GGAUCUUCUCGAUCUAACAAAAAAGACAAAUCUGCCACAAGGCUUGAGAGCAUCUUCGGAUGCAGAGGCGGCAGCCUCCGGUGGCGCGAUAGCGCCAACGUUCUCAACUAUGACAGGCAAAACGCGUGCUCCGUUGAAUGGAGUUUAUCAUG [A41G U78C C116G] — higher, 0.0342
- GGAUCUUCUCGAUCUAACAAAAAAGACAAAUCUGCCACAAUGCUUGCGAGCAUCUUCGGUUGCAGAGGCGGCAGUGUUCGGUGGCGCGAUGGCACCAACGUUCUCAACUAUGACACGCAAGACGCGUGCUCCGUUGAAUGCAGUUUAUCAUG [A41U A47C A60U C75U C76G A91G G94A A121G G141C] — lower, ≤ -4.2
- GGAUCUUCUCGAUCUAACAAAAAAGACAAAUCUGCCACAAUGCUUGUGAGCAUCGUAGGUUGCAGAGGCGGCGGCCUUCGGUGGCGCGAUAGCGCUAACGUUCUCAACUAUGACACUCAAAACGCGUGCUCCGUUGAAUGGAGUUCAUCAUG [A41U A47U U55G C57A A60U A73G C96U G117U U146C] — lower, ≤ -4.2
- GGAUCUUCUCGAUCUAACAAAAAAGACAAAUCUGCCACAAUGCUUGAGCGCAUCUUUGGAUGCAGAGGCGGCAGCCUUCGGUGGUGCGAUAGAGCCAACGUUCUCAACUAUGACACGCAAAACGCGUGCUCCGUUGAAUGUAGUUUAUCAUG [A41U A49C C57U C85U C93A G141U] — lower, ≤ -4.2
- GGAUCUUCUCGAUCUAACAAAAAAGACAAAUCUGCCACAAUGCUUGAGUGCAUCUUCGGAUGCAGAGGCGGCAGCCGUCGGUGGCGCGAUAGGGCCAAAGUUCUCAACUAUGACACGCAAAACGCGUGCUCCGUUGAAUGGGGUUUAUCAUG [A41U A49U U77G C93G C99A A142G] — lower, ≤ -4.2
- GGAUCUUCUCGAUCUAACAAAAAAGACAAAUCUGCCACAAUGCUUGAGAGCCUCUUCGGAUGCAGAGGCGGCAGCCUUCGGUGGCGCGAUAGCGCCAACGUUCUCAACUAUGACACGCAAAACGCGUGCUCCGUUGAAUGGAGUUUAUCAUG [A41U A52C] — higher, -2.05
- GGAUCUUCUCGAUCUAACAAAAAAGACAAAUCUGCCACAAUGCUUGAGAGCUUCUUCGGAUGCAGAGGCGGCAGCCUUCGGUGGCGCGAUAGCGCCAACGUUCUCAACUAUGACACGCAAAACGCGUGCUCCGUUGAAUGGAGUUUAUCAUG [A41U A52U] — higher, -2.47
- GGAUCUUCUCGAUCUAACAAAAAAGACAAAUCUGCCACAAUGCUUGAGAGCAUCUUCGGGUGCAGAGGCGGCAGCCUUCAGUGGCGCGAUAGCGCCAACGUUCUCAACUAUGACACGCAAAACGCGUGCUCCGUUGAAUGGAGUUUAACAUG [A41U A60G G80A U148A] — lower, ≤ -4.2
- GGAUCUUCUCGAUCUAACAAAAAAGACAAAUCUGCCACAAUGCUUGAGAGCAUCUUCGGAUGCGGAGGCGGCAGCCUUCGCUGGCGAGAUAGCGCCAACGUUCUCAACUAUGACACGCAAAACGCGUGCUCCGUUGAAUUGGGUUUAUCAUG [A41U A64G G81C C87A G140U A142G] — lower, ≤ -4.2
